{
  "source": "PubChem BioAssay AID686978",
  "about": "(National Center for Advancing Translational Sciences (NCATS), 2013)",
  "note": "Where “and” joins values, the source holds several entries; their conditions need not be identical. Identical values can stand only once. Among all 420,000 compounds or so, about 64,000 (15%) were called active. Inconclusive results, whose numbers are uncertain, are shown with a selection of clear calls. Calls come from the whole dose curve; as a rule, active = well fitted inhibition curve with a large enough effect; inconclusive = small, poorly fitted or top-dose-only effect; inactive = flat fitted curve, though single readings scatter. A potency beside an inconclusive call is a rough fit, not a confirmed value. % is set by controls: 0 for no effect and ±100 for the full control effect; potency is the fitted concentration of half-maximal effect; tags give direction and shape of the fitted curve.",
  "data": [
    {"test": "qHTS for Inhibitors of human tyrosyl-DNA phosphodiesterase 1 (TDP1): qHTS in cells in absence of CPT; note: nearly all actives have a fitted effect of over 55% in size", "settings": "DT40 Tdp1-/- hTDP1 cells, no CPT, ATP luminescence, 48 h; activity change, negative = growth inhibition: at 46.2 µM (top of the series) unless noted", "outline": "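Growth kinetics read by CellTiter-Glo luminescence after ≥48 hr at 37 °C. Cells: DT40 Tdp1-/- stably carrying human TDP1, 400 per well, compound exposure in the absence of CPT (DMSO vehicle).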", "values": [
      {"smiles": "CN1CCN(c2cc3c(cc2F)c(=O)c(C(=O)O)cn3CCF)CC1", "Potency": "inconclusive: 9.2 µM [inhibitor, partial curve]"},
      {"smiles": "Cc1ccc(C(C)C)cc1S(=O)(=O)NCc1cccnc1", "activity change, negative = growth inhibition": "inconclusive: -29.2% [inhibitor]"},
      {"smiles": "CCCS(=O)(=O)N1CCN(CC2CC3C=CC2C3)CC1", "note": "(stereo not given)", "Potency": "active: 5.8 µM"},
      {"smiles": "O=C(COc1ccccc1)NNC(=S)NC(=O)c1ccccc1", "Potency": "inconclusive: 23.1 µM [inhibitor, single point]"},
      {"smiles": "CCOc1ccccc1C(=O)N[C@H](C(=O)OCc1cc([N+](=O)[O-])cc2c1OCOC2)C(C)C", "Potency": "active: 16.4 µM"},
      {"smiles": "O=C(CCN1C(=O)CSc2ccccc21)Nc1cccc(C(F)(F)F)c1", "Potency": "inconclusive: 16.4 µM [inhibitor, partial curve, poor fit]"},
      {"smiles": "Cc1nc(C(=O)NNC(=O)c2ccc(C(F)(F)F)cc2)cs1", "Potency": "active: 20.6 µM"},
      {"smiles": "Cc1cc2nc(CN(C)Cc3c(C(=O)N(C)C)nc4ccc(Cl)cn34)[nH]c2cc1C", "Potency": "inconclusive: 18.4 µM [inhibitor, single point]"},
      {"smiles": "C[C@]12c3[nH]c4ccc(Cl)cc4c3CCN1C(=O)[C@@H](CC(=O)NCCN1CCOCC1)C[C@@H]2C(=O)N1CCCCC1", "Potency": "active: 16.4 µM"},
      {"smiles": "CCNC(=S)Nc1cc(OCC)c(N2CCOCC2)cc1OCC", "Potency": "inconclusive: 23.1 µM [inhibitor, partial curve]"},
      {"smiles": "O=S(=O)(c1cccc(-c2csc(-c3ccccc3)n2)c1)N1CCOCC1", "Potency": "inconclusive: 23.1 µM [inhibitor, single point]"},
      {"smiles": "CC1=CC(C)(C)NC(=S)N1c1ccc2ccccc2c1", "Potency": "inconclusive: 23.1 µM [inhibitor, single point] and inconclusive: 18.4 µM [inhibitor, partial curve, poor fit]"},
      {"smiles": "O=C(CSc1n[nH]c(-c2ccc(F)cc2)n1)NCCc1ccccc1", "Potency": "inconclusive: 16.4 µM [inhibitor, single point]"},
      {"smiles": "Cc1ccc(OCc2cc(C(=O)N(C)Cc3nccn3C)no2)cc1C", "Potency": "inactive"},
      {"smiles": "CN1CCN(Cc2cc(COCc3ccccc3)c3cccnc3c2O)CC1", "Potency": "active: 3.26 µM"},
      {"smiles": "CCOc1ccc(NC(=O)/C(C#N)=C\\c2ccc(-c3ccc(Cl)cc3)o2)cc1", "Potency": "active: 10.3 µM"},
      {"smiles": "COc1ccc(S(=O)(=O)Nc2ccc3c(c2)CC(=O)N([C@H](C)CO)C[C@H](C)[C@H](CN(C)C(=O)Nc2ccc4c(c2)OCO4)O3)cc1", "Potency": "inconclusive: 29.1 µM [inhibitor, single point]"},
      {"smiles": "O=S(=O)(O)Sc1ccccc1", "Potency": "active: 20.6 µM"},
      {"smiles": "O=C(c1ccc(COc2ccccc2)o1)N1CCN(S(=O)(=O)c2ccccc2Cl)CC1", "Potency": "inconclusive: 29.1 µM [inhibitor, single point]"},
      {"smiles": "O=C(c1ccc(Cl)c(S(=O)(=O)NCc2ccco2)c1)N1CCN(c2ccccc2F)CC1", "Potency": "inconclusive: 20.6 µM [inhibitor, single point]"},
      {"smiles": "Cc1ccccc1NC(=O)Cn1c(=O)n(Cc2ccc3c(c2)OCO3)c(=O)c2ccccc21", "Potency": "active: 16.4 µM"},
      {"smiles": "COc1cccc(NC(=O)Cn2cc(C(=O)c3ccc(C)cc3)c(=O)c3cc(OC)ccc32)c1", "Potency": "inconclusive: 20.6 µM [inhibitor, single point]"},
      {"smiles": "CCOC(=O)c1[nH]c2ccc(OC)cc2c1NC(=O)N1CCOCC1", "Potency": "inactive"},
      {"smiles": "O=c1c(-c2cc(F)cc(F)c2)nc2cnc(Oc3ccccc3)nc2n1C1CC1", "Potency": "inconclusive: 23.1 µM [inhibitor, partial curve]"},
      {"smiles": "COc1ccc(Cl)cc1C(=O)O/N=C(\\N)c1ccccn1", "activity change, negative = growth inhibition": "inconclusive: -36.1% [inhibitor]"},
      {"smiles": "O=C(COc1ccc(Cl)cc1)N1CCN(S(=O)(=O)c2cc(F)ccc2F)CC1", "Potency": "inconclusive: 29.1 µM [inhibitor, single point]"},
      {"smiles": "CCCCCCCCN1[C@@H](CC(C)=O)c2cc(C(F)(F)F)ccc2S1(=O)=O", "Potency": "active: 12.6 µM"},
      {"smiles": "CCCCC(=O)N1CCN(c2nc3ccc(Br)cc3s2)CC1", "Potency": "active: 14.6 µM"},
      {"smiles": "Cc1ccc(S(=O)(=O)NCCc2cn3ccsc3n2)c(C)c1", "Potency": "inactive"},
      {"smiles": "CCCCNC(=O)C(=O)Nc1cc2c3c(c1)CCC(=O)N3CCC2", "Potency": "inactive"},
      {"smiles": "CN(C(=O)COC(=O)/C=C/c1ccc2ccccc2n1)C1CCS(=O)(=O)C1", "note": "(stereo not given)", "Potency": "inconclusive: 29.1 µM [inhibitor, single point]"},
      {"smiles": "CCCCCCOC(=O)/C=C/c1c(C)[nH]c(=O)[nH]c1=O", "Potency": "active: 4.61 µM"},
      {"smiles": "Cc1nc(-c2ccc(Cl)cc2)sc1C(=O)NN", "Potency": "inconclusive: 29.1 µM [inhibitor, single point]"},
      {"smiles": "COc1cc(C(=O)OCc2ccc([N+](=O)[O-])cc2)cc(OC)c1OC", "Potency": "inactive"},
      {"smiles": "COC(=O)[C@]12CCCCC=C1N(CCC1=CCCCC1)C(=O)[C@H](CC(=O)N1CCCC1)C2", "Potency": "active: 16.4 µM"},
      {"smiles": "CC(C)C(=O)Nc1cccc(NC(=O)c2cc3ccccc3o2)c1", "Potency": "inconclusive: 16.4 µM [inhibitor, single point]"},
      {"smiles": "COC(=O)c1cc(S(=O)(=O)NCC2CCN(CCc3cccs3)CC2)cn1C", "Potency": "inactive"},
      {"smiles": "CN(C)c1ccc(-c2cc(Nc3ccc(F)cc3)ncn2)cc1", "Potency": "inconclusive: 29.1 µM [inhibitor, single point]"},
      {"smiles": "Cc1cc(C)nc(Nc2nc(C(N)c3ccccc3)cs2)n1", "note": "(stereo not given)", "Potency": "inconclusive: 29.1 µM [inhibitor, single point]"},
      {"smiles": "O=C(Nc1cccc(Cl)c1)N1CCc2ccccc2C1", "Potency": "inconclusive: 29.1 µM [inhibitor, single point]"},
      {"smiles": "CCC(Sc1ncnc2c1nnn2-c1ccc(F)cc1)C(=O)OC", "note": "(stereo not given)", "Potency": "inconclusive: 32.6 µM [inhibitor, single point]"},
      {"smiles": "CCOc1ccccc1CNc1ccc(O)cc1", "Potency": "inconclusive: 29.1 µM [inhibitor, single point]"},
      {"smiles": "Cc1ccc(C)c(NC(=S)N(Cc2cccc(Br)c2)CC2CCC(C(=O)O)CC2)c1", "note": "(stereo not given)", "Potency": "inactive"},
      {"smiles": "CCNC(=O)CC1C(=O)N(c2ccc(F)cc2)C(=O)N1CCc1sccc1C", "note": "(stereo not given)", "Potency": "inactive"},
      {"smiles": "CC(=O)Nc1ccc(Nc2ncnc3c2cnn3C)cc1", "Potency": "inconclusive: 16.4 µM [inhibitor, partial curve]"}
    ]}
  ]
}
